Assay results published in PubChem BioAssay AID588591 (National Center for Advancing Translational Sciences (NCATS), 2011).
Screen size: about 390,000 compounds; about 4,700 (1.2%) were called active. The inconclusive results got no clear call from the source; some entries with a clear call stand among them for comparison. Calls come from the whole dose curve; as a rule, active = well fitted inhibition curve with a large enough effect; inconclusive = small, poorly fitted or top-dose-only effect, or another doubt; inactive = no such curve, though single readings can be large or run the other way. Where the call is inconclusive, the potency comes from a doubtful curve fit.

Each compound was assayed against DNA polymerase eta (Homo sapiens) (UniProt Q9Y253) (assay: qHTS for Inhibitors of Polymerase Eta). Settings: recombinant Pol eta, fluorescent DNA replication assay; series mostly up to 114 µM.
UniProt Q9Y253, sequence (Q9Y253 whole entry, looked up): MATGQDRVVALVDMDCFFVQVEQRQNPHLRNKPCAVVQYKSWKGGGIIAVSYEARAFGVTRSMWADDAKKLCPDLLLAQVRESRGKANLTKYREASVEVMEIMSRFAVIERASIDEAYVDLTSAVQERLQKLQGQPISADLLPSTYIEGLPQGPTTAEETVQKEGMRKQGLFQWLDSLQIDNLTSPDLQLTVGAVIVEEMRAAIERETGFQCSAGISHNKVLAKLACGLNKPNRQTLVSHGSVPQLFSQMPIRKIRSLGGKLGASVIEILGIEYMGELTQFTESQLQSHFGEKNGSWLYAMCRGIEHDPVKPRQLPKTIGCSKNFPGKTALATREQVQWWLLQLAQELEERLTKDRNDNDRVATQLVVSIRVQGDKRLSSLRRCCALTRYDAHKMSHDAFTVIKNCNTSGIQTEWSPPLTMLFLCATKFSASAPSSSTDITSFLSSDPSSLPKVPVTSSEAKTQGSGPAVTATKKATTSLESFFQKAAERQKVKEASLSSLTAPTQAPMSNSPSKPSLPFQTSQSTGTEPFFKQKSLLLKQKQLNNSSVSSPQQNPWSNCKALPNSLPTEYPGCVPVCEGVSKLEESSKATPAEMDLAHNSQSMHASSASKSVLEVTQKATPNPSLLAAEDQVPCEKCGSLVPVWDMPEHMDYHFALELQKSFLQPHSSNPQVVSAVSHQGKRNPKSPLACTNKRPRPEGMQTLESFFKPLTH
Procedure, shortened: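 Pol eta at 10 nM preincubated with compounds 15 min at room temperature; reaction started with fluorescent substrate (50 nM final) and read kinetically at 0 and 10 min.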
Potency is the fitted concentration of half-maximal effect; tags give direction and shape of the fitted curve.

**Q.** With `Cc1ccc(/C=C2\C(=N)N3N=C(CC(=O)N4CCCCC4)SC3=NC2=O)cc1` as the compound, how does the Potency read?
**A.** The Potency was inconclusive: 31.6 µM [inhibitor, partial curve].

**Q.** With `c1ccc(-[n+]2nc(Nc3cccc4ccccc34)sc2-c2c3ccccc3cc3ccccc23)cc1` as the compound, how does the Potency read?
**A.** The Potency was “inactive”.

**Q.** `CC(C)(C)c1ccc(-c2n[nH]c(=S)n2/N=C/c2ccncc2)cc1` was tested. Which Potency did it give?
**A.** The Potency was inconclusive: 35.5 µM [inhibitor, partial curve, poor fit].

**Q.** `COC(=O)C(C)N1C(=O)S/C(=C/c2cc(C)n(-c3ccccn3)c2C)C1=O` (configuration not stated) was tested. Which Potency did it give?
**A.** Its Potency is “inactive”.

**Q.** For `O=C(O)CN1C(=O)/C(=C\c2ccccc2OCc2ccccc2)SC1=S`, which Potency is on record?
**A.** Its Potency is active: 79.4 µM.

**Q.** For `O=C(O)CN(Cc1ccco1)S(=O)(=O)c1ccccc1`, which Potency is on record?
**A.** The Potency was inconclusive: 25.1 µM [inhibitor, partial curve, poor fit].

**Q.** For `CCOC(=O)Cc1nnc(NC(=O)CSc2nnc3c4ccccc4n(C)c3n2)s1`, which Potency is on record?
**A.** Its Potency is “inactive”.

**Q.** With `Cc1nc(N2C(=O)C(=O)/C(=C(/O)c3ccccc3)C2c2ccco2)sc1C` (configuration not stated) as the compound, how does the Potency read?
**A.** Its Potency is inconclusive: 31.6 µM [inhibitor, single point].

**Q.** For `Cc1noc(NS(=O)(=O)c2ccc(NC(=O)c3ccc(N4C(=O)c5ccccc5C4=O)cc3)cc2)c1C`, which Potency is on record?
**A.** The Potency was active: 79.4 µM.

**Q.** `COc1ccc2nc(NS(=O)(=O)c3ccc(C)cc3)c(Nc3cc(Cl)ccc3OC)nc2c1` was tested. Which Potency did it give?
**A.** Its Potency is inconclusive: 89.1 µM [inhibitor, single point].

**Q.** `COC(=O)c1ccccc1NC1=C/C(=N\S(=O)(=O)c2ccc(C(=O)O)cc2)c2ccccc2C1=O` was tested. Which Potency did it give?
**A.** The Potency was active: 14.1 µM.

**Q.** How did the Potency turn out when `O=C(NCC1(c2ccccc2)CCCC1)C(=O)Nc1cccc(C(F)(F)F)c1` was run?
**A.** The Potency was “inactive”.

**Q.** `Cc1noc(/C=C/N(C)C)c1S(=O)(=O)N1CCCC(C(=O)Nc2cccc(F)c2)C1` (configuration not stated) was tested. Which Potency did it give?
**A.** The Potency was inconclusive: 79.4 µM [inhibitor, partial curve, poor fit].

**Q.** Which Potency does the source give for `N=c1c(C(=O)NCC2CCCO2)cc2c(=O)n3ccccc3nc2n1Cc1cccnc1` (configuration not stated) here?
**A.** Its Potency is inconclusive: 35.5 µM [inhibitor, partial curve, poor fit].

**Q.** Which Potency does the source give for `NC1=NC(=O)/C(=C/c2ccc(-c3ccc(S(N)(=O)=O)cc3)o2)S1` here?
**A.** Its Potency is active: 22.4 µM.

**Q.** How did the Potency turn out when `O=C(N/N=C/c1cc(Br)c(O)c(Br)c1)c1cc2c(ccc3ccccc32)o1` was run?
**A.** Its Potency is active: 17.8 µM.

**Q.** `COc1ccc(NC(=O)COC(=O)c2ccc3c(c2)OCO3)c(OC)c1` was tested. Which Potency did it give?
**A.** The Potency was inconclusive: 28.2 µM [inhibitor, partial curve, poor fit].

**Q.** How did the Potency turn out when `Cc1ccc(C(=O)c2oc3ccccc3c2NC(=O)c2nc(S(C)(=O)=O)ncc2Cl)cc1F` was run?
**A.** The Potency was “inactive”.

**Q.** How did the Potency turn out when `O=C(/C=C/c1ccco1)N1CCC(Cc2ccccc2)CC1` was run?
**A.** The Potency was inconclusive: 89.1 µM [inhibitor, single point].

**Q.** `CCOC(=O)c1c(C)[nH]c(C)c1C(=O)COC(=O)c1cc2ccccc2cc1O` was tested. Which Potency did it give?
**A.** Its Potency is inconclusive: 28.2 µM [inhibitor, partial curve, poor fit].

**Q.** `CSc1ccccc1NC(=O)CN1CCN(S(=O)(=O)c2ccccc2[N+](=O)[O-])CC1` was tested. Which Potency did it give?
**A.** Its Potency is inconclusive: 0.708 µM [inhibitor, full curve, poor fit].

**Q.** Which Potency does the source give for `Cc1cccc(-c2nnn(Cc3nnc(NC(=O)c4ccccc4)s3)n2)c1` here?
**A.** Its Potency is inconclusive: 22.4 µM [inhibitor, single point].

**Q.** `Cc1cccc(COC(=O)C(Cc2ccccc2)NC(N)=O)c1` (configuration not stated) was tested. Which Potency did it give?
**A.** Its Potency is “inactive”.

**Q.** How did the Potency turn out when `O=C1NC(=S)N/C1=C/c1cccn1-c1ccc([N+](=O)[O-])cc1` was run?
**A.** Its Potency is inconclusive: 50.1 µM [inhibitor, partial curve].

**Q.** `O=C(CCl)N1c2ccccc2Oc2ccc3ccccc3c21` was tested. Which Potency did it give?
**A.** Its Potency is inconclusive: 22.4 µM [inhibitor, full curve, poor fit].

**Q.** How did the Potency turn out when `CCOC(=O)c1oc2c(O)c(O)ccc2c(=O)c1-c1nncn1-c1ccccc1` was run?
**A.** Its Potency is inconclusive: 3.55 µM [inhibitor, full curve, poor fit].

**Q.** How did the Potency turn out when `CC(C)Oc1ccc(CNC(=O)Cc2ccc(NC(=O)N3CCSc4ncccc43)cc2)cc1` was run?
**A.** The Potency was “inactive”.

**Q.** How did the Potency turn out when `O=C(COC(=O)c1c(F)cccc1F)Nc1ccc2[nH]c(=O)[nH]c2c1` was run?
**A.** The Potency was inconclusive: 56.2 µM [inhibitor, partial curve, poor fit].

**Q.** How did the Potency turn out when `COc1ccc(-c2nn(CCC(=O)O)cc2/C=C2\SC(N)=NC2=O)cc1` was run?
**A.** The Potency was active: 5.62 µM.

**Q.** For `CCc1nc2oc3ccccc3c(=O)c2cc1C(=O)OC`, which Potency is on record?
**A.** The Potency was “inactive”.

**Q.** For `CC(=O)N1CCCc2cc(S(=O)(=O)N(C)CC(=O)Nc3ccc(F)c(Cl)c3)ccc21`, which Potency is on record?
**A.** Its Potency is “inactive”.

**Q.** How did the Potency turn out when `O=C1C2CC=C(Cl)CC2C(=O)N1CN(Cc1ccco1)CN1C(=O)C2CC=C(Cl)CC2C1=O` (configuration not stated) was run?
**A.** Its Potency is inconclusive: 31.6 µM [inhibitor, partial curve].

**Q.** How did the Potency turn out when `Cc1c(C(=O)OCCOc2ccccc2)[nH]c2c1C(=O)CCC2` was run?
**A.** Its Potency is inconclusive: 50.1 µM [inhibitor, partial curve, poor fit].

**Q.** Which Potency does the source give for `Cn1c(=O)oc2cc(S(=O)(=O)NCCC(=O)Nc3ccc(F)c(Cl)c3)ccc21` here?
**A.** The Potency was active: 31.6 µM.

**Q.** `CCc1cccc2c(C(=O)COC(=O)/C=C/c3ccc(O)c(OC)c3)c[nH]c12` was tested. Which Potency did it give?
**A.** The Potency was inconclusive: 31.6 µM [inhibitor, partial curve, poor fit].

**Q.** Which Potency does the source give for `CCC(C)NC(=O)Cn1c(=O)n(-c2cc(OC)cc(OC)c2)c(=O)c2ccccc21` (configuration not stated) here?
**A.** The Potency was “inactive”.

**Q.** `CCOC(=O)c1ccc(NC(=O)CSCCC(=O)O)cc1` was tested. Which Potency did it give?
**A.** The Potency was “inactive”.

**Q.** For `Cc1ccc(SCCNC(=O)CN(c2cccc(C)c2C)S(C)(=O)=O)cc1`, which Potency is on record?
**A.** The Potency was inconclusive: 89.1 µM [inhibitor, partial curve, poor fit].

**Q.** How did the Potency turn out when `CCOC(=O)c1c(C)[nH]c(C(=O)COC(=O)CNC(=O)c2ccc(Br)cc2)c1C` was run?
**A.** The Potency was inconclusive: 31.6 µM [inhibitor, partial curve, poor fit].

**Q.** `COc1ccc2c(c1)c(C(=O)N/N=C/c1ccc(O)c(O)c1)c(C)n2C` was tested. Which Potency did it give?
**A.** Its Potency is inconclusive: 31.6 µM [inhibitor, single point].

**Q.** How did the Potency turn out when `CC(C)c1ccc(NC(=O)Cn2nnc(C(=O)NCCc3ccccc3)c2N)cc1` was run?
**A.** The Potency was inconclusive: 79.4 µM [inhibitor, single point].

**Q.** With `CCc1nnc(N/N=C/c2c(Cl)cccc2Cl)n1N` as the compound, how does the Potency read?
**A.** Its Potency is “inactive”.

**Q.** Which Potency does the source give for `CCOC(=O)C1=C(C)Nc2sc(C(=O)c3ccc(F)cc3)c(N)c2C1c1ccc(C(=O)OC)cc1` (configuration not stated) here?
**A.** Its Potency is inconclusive: 50.1 µM [inhibitor, partial curve, poor fit].

**Q.** For `COc1ccc(NC(=O)CCCc2nnc3n(C(C)C)c(=O)c4sccc4n23)cc1Cl`, which Potency is on record?
**A.** The Potency was “inactive”.

**Q.** How did the Potency turn out when `COC(=O)c1sc(N)c(C(=O)OC)c1COC(=O)C1CC(=O)N(Cc2ccco2)C1` (configuration not stated) was run?
**A.** Its Potency is active: 79.4 µM.

**Q.** How did the Potency turn out when `Cc1cccc(C)c1NC(=O)CN(C)C(=O)c1ccc2nc[nH]c2c1` was run?
**A.** Its Potency is inconclusive: 22.4 µM [inhibitor, full curve, poor fit].

**Q.** How did the Potency turn out when `O=C(N/N=C/c1ccco1)c1ccc(N2CCCC2=O)cc1` was run?
**A.** The Potency was inconclusive: 20 µM [inhibitor, partial curve].

**Q.** How did the Potency turn out when `Cc1cc(C)c2cc3c(ccn3C3OC[C@H](O)[C@H](O)[C@H]3O)cc2n1` (some centres not stated) was run?
**A.** The Potency was inconclusive: 25.1 µM [inhibitor, single point].

**Q.** How did the Potency turn out when `O=C(Nc1nnc(S(=O)(=O)N2CCCc3ccccc32)s1)c1ccc(Cl)cc1` was run?
**A.** The Potency was inconclusive: 89.1 µM [inhibitor, single point].

**Q.** Which Potency does the source give for `CCOc1ccc(NCCC(O)c2ccc(F)cc2)cc1` (configuration not stated) here?
**A.** The Potency was inconclusive: 100 µM [inhibitor, partial curve, poor fit].

**Q.** With `Cc1nc(NC(=O)/C=C/c2ccco2)sc1C` as the compound, how does the Potency read?
**A.** The Potency was inconclusive: 15.8 µM [inhibitor, partial curve, poor fit].

**Q.** For `CCOC(=O)c1c(/N=C/c2cccc([N+](=O)[O-])c2O)sc(C)c1C`, which Potency is on record?
**A.** Its Potency is “inactive”.

**Q.** For `C/C(=N/Nc1ccccc1C(=O)O)c1cccs1`, which Potency is on record?
**A.** Its Potency is “inactive”.

**Q.** Which Potency does the source give for `O=C(N/N=C/C=C/c1ccc([N+](=O)[O-])cc1)c1cccs1` here?
**A.** The Potency was inconclusive: 25.1 µM [inhibitor, partial curve, poor fit].

**Q.** Which Potency does the source give for `O=C(O)CCc1ccc(-c2ccc(Cl)cc2)n1Cc1ccco1` here?
**A.** Its Potency is inconclusive: 89.1 µM [inhibitor, single point].

**Q.** `CCOc1ccc2nc(N3C(=O)/C(=C/c4ccc(Cl)cc4)NC3=S)sc2c1` was tested. Which Potency did it give?
**A.** The Potency was inconclusive: 39.8 µM [inhibitor, single point].

**Q.** For `CCN(CC)CCNC(=O)c1cc2c(-c3ccc(Cl)cc3)nn(C)c2s1`, which Potency is on record?
**A.** Its Potency is “inactive”.

**Q.** Which Potency does the source give for `O=S(=O)(c1ccc(F)cc1)N1CCN(c2ccc(-c3ccccc3)nn2)CC1` here?
**A.** The Potency was inconclusive: 79.4 µM [inhibitor, partial curve, poor fit].

**Q.** With `CC(C)OC(=O)c1c2c(n3ccccc13)C(=O)c1ccccc1C2=O` as the compound, how does the Potency read?
**A.** Its Potency is inconclusive: 15.8 µM [inhibitor, full curve, poor fit].

**Q.** `Cc1cc(OC(C)C(=O)NCc2cccnc2)c2c(C)c(Cc3ccccc3)c(=O)oc2c1` (configuration not stated) was tested. Which Potency did it give?
**A.** Its Potency is inconclusive: 50.1 µM [inhibitor, partial curve, poor fit].

**Q.** `CC(C)c1ccc(NC(=S)NC2CCN(Cc3ccccc3)CC2)cc1` was tested. Which Potency did it give?
**A.** Its Potency is inconclusive: 89.1 µM [inhibitor, partial curve, poor fit].

**Q.** With `O=C(CCN1C(=O)/C(=C/c2cccs2)SC1=S)Nc1ccc(C(=O)O)c(O)c1` as the compound, how does the Potency read?
**A.** Its Potency is active: 39.8 µM.

**Q.** Which Potency does the source give for `CCCn1nc(C(=O)Nc2ccc3c(c2)OCCO3)c2ccccc2c1=O` here?
**A.** Its Potency is inconclusive: 50.1 µM [inhibitor, partial curve, poor fit].

**Q.** For `O=C(COc1cccnc1[N+](=O)[O-])c1ccc(Cl)s1`, which Potency is on record?
**A.** The Potency was active: 44.7 µM.

**Q.** How did the Potency turn out when `O=C(Cn1sc2ccccc2c1=O)Nc1ccc(F)cc1` was run?
**A.** The Potency was “inactive”.

**Q.** With `Cc1ccc(NC(=O)N/C=C/c2ccco2)c(C)c1` as the compound, how does the Potency read?
**A.** The Potency was active: 79.4 µM.

**Q.** How did the Potency turn out when `O=C(COC(=O)c1ccccc1O)Nc1ncc(Cl)cc1Cl` was run?
**A.** The Potency was active: 17.8 µM.
